# Laboratory results from the supplement of paper PMC8728848.
# Some of the results follow.
# B1: PpFlo2 (Pichia pastoris) (protein)
# chain: MGSSHHHHHHSSGLVPRGSHMDDSGNGDNSDTAYGCDITTNAVDGFDATIYQYNANDLRLIRDPTFMSTGYLGRNVLNKISGVTVPGFNIWNPSSRTATVYGVKNVNYYNMVLELKGYFKADVSGDYKLTLSHIDDSSMLFFGKETAFKCCDAGSIPLNEAPTDYSLFTIKPSNQVNSEVISATQYLEAGKYYPVRIVFVNALERARFDFKLTIPSGAVLDDFQNYIYQFGDLDENSCHE
# Tests used:
# Experiment in all cases: glycan array binding signal (z-score within array); higher = stronger binding
# Conditions in all cases: glycan notation: IUPAC condensed, linker removed
# [1] = biological target: Neu5Ac(a2-3)Gal(b1-3)[Fuc(a1-4)]GlcNAc(b1-3)Gal(b1-4)[Fuc(a1-3)]GlcNAc
# How it was run: (§1)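 Columns mapping to the same glycan were averaged after glycan names were converted to IUPAC-condensed notation. The data come from 3228 arrays in the Consortium for Functional Glycomics database, limited to those with an available protein sequence. Binding is reported as a within-array Z-score averaged across arrays of one protein sequence and across linkers.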
# [2] = biological target: Neu5Ac(a2-3)Gal(b1-3)[GlcNAc(b1-6)]GalNAc
# How it was run: as §1
# [3] = biological target: Neu5Ac(a2-3)Gal(b1-3)[Neu5Ac(a2-3)Gal(b1-4)]GlcNAc
# How it was run: as §1
# [4] = biological target: Neu5Ac(a2-3)Gal(b1-3)[Neu5Ac(a2-6)]GalNAc
# How it was run: as §1
# [5] = biological target: Neu5Ac(a2-3)Gal(b1-3)[Neu5Ac(a2-6)]GlcNAc(b1-3)[Fuc(a1-3)[Gal(b1-4)]GlcNAc(b1-6)]Gal(b1-4)Glc
# How it was run: as §1
# [6] = biological target: Neu5Ac(a2-3)Gal(b1-3)]Neu5Ac(a2-3)Gal(b1-4)]GlcNAc
# How it was run: as §1
# Neu5Ac(a2-3)Gal(b1-4)Glc = biological target: Neu5Ac(a2-3)Gal(b1-4)Glc
# How it was run: as §1
# [7] = biological target: Neu5Ac(a2-3)Gal(b1-4)GlcNAc
# How it was run: as §1
# [8] = biological target: Neu5Ac(a2-3)Gal(b1-4)GlcNAc(b1-2)Man
# How it was run: as §1
# [9] = biological target: Neu5Ac(a2-3)Gal(b1-4)GlcNAc(b1-2)Man(a1-3)[GlcNAc(b1-2)Man(b1-4)GlcNAc(b1-2)Man(a1-6)]Man(b1-4)GlcNAc(b1-4)GlcNAc
# How it was run: as §1
# [10] = biological target: Neu5Ac(a2-3)Gal(b1-4)GlcNAc(b1-2)Man(a1-3)[GlcNAc(b1-4)][Neu5Ac(a2-3)Gal(b1-4)GlcNAc(b1-2)Man(a1-6)]Man(b1-4)GlcNAc(b1-4)GlcNAc
# How it was run: as §1
# [11] = biological target: Neu5Ac(a2-3)Gal(b1-4)GlcNAc(b1-2)Man(a1-3)[Neu5Ac(a2-3)Gal(b1-4)GlcNAc(b1-2)Man(a1-6)]Man(b1-4)GlcNAc(b1-4)GlcNAc
# How it was run: as §1
# [12] = biological target: Neu5Ac(a2-3)Gal(b1-4)GlcNAc(b1-2)Man(a1-3)[Neu5Ac(a2-3)Gal(b1-4)GlcNAc(b1-2)Man(a1-6)]Man(b1-4)GlcNAc(b1-4)[Fuc(a1-6)]GlcNAc
# How it was run: as §1
# [13] = biological target: Neu5Ac(a2-3)Gal(b1-4)GlcNAc(b1-2)Man(a1-3)[Neu5Ac(a2-6)Gal(b1-4)GlcNAc(b1-2)Man(a1-6)]Man(b1-4)GlcNAc(b1-4)GlcNAc
# How it was run: as §1
# [14] = biological target: Neu5Ac(a2-3)Gal(b1-4)GlcNAc(b1-2)[Neu5Ac(a2-3)Gal(b1-4)GlcNAc(b1-4)]Man(a1-3)[GlcNAc(b1-4)][Neu5Ac(a2-3)Gal(b1-4)GlcNAc(b1-2)[Neu5Ac(a2-3)Gal(b1-4)GlcNAc(b1-6)]Man(a1-6)]Man(b1-4)GlcNAc(b1-4)GlcNAc
# How it was run: as §1
# [15] = biological target: Neu5Ac(a2-3)Gal(b1-4)GlcNAc(b1-2)[Neu5Ac(a2-3)Gal(b1-4)GlcNAc(b1-4)]Man(a1-3)[GlcNAc(b1-4)][Neu5Ac(a2-3)Gal(b1-4)GlcNAc(b1-4)Man(a1-6)]Man(b1-4)GlcNAc(b1-4)GlcNAc
# How it was run: as §1
# [16] = biological target: Neu5Ac(a2-3)Gal(b1-4)GlcNAc(b1-2)[Neu5Ac(a2-3)Gal(b1-4)GlcNAc(b1-6)]Man(a1-6)[Neu5Ac(a2-3)Gal(b1-4)GlcNAc(b1-2)Man(a1-3)]Man(b1-4)GlcNAc(b1-4)GlcNAc
# How it was run: as §1
# [17] = biological target: Neu5Ac(a2-3)Gal(b1-4)GlcNAc(b1-2)[Neu5Ac(a2-3)Gal(b1-4)GlcNAc(b1-6)]Man(a1-6)[Neu5Ac(a2-3)Gal(b1-4)GlcNAc(b1-2)Man(a1-3)][GlcNAc(b1-4)]Man(b1-4)GlcNAc(b1-4)GlcNAc
# How it was run: as §1
# [18] = biological target: Neu5Ac(a2-3)Gal(b1-4)GlcNAc(b1-3)Gal
# How it was run: as §1
# [19] = biological target: Neu5Ac(a2-3)Gal(b1-4)GlcNAc(b1-3)Gal(b1-3)GlcNAc
# How it was run: as §1
# [20] = biological target: Neu5Ac(a2-3)Gal(b1-4)GlcNAc(b1-3)Gal(b1-4)GlcNAc
# How it was run: as §1
# [21] = biological target: Neu5Ac(a2-3)Gal(b1-4)GlcNAc(b1-3)Gal(b1-4)GlcNAc(b1-2)Man(a1-3)[Neu5Ac(a2-3)Gal(b1-4)GlcNAc(b1-3)Gal(b1-4)GlcNAc(b1-2)Man(a1-6)]Man(b1-4)GlcNAc(b1-4)GlcNAc
# How it was run: as §1
# [22] = biological target: Neu5Ac(a2-3)Gal(b1-4)GlcNAc(b1-3)Gal(b1-4)GlcNAc(b1-3)Gal(b1-4)GlcNAc
# How it was run: as §1
# [23] = biological target: Neu5Ac(a2-3)Gal(b1-4)GlcNAc(b1-3)Gal(b1-4)GlcNAc(b1-3)Gal(b1-4)GlcNAc(b1-2)Man(a1-3)[Neu5Ac(a2-3)Gal(b1-4)GlcNAc(b1-3)Gal(b1-4)GlcNAc(b1-3)Gal(b1-4)GlcNAc(b1-2)Man(a1-6)]GalNAc
# How it was run: as §1
# [24] = biological target: Neu5Ac(a2-3)Gal(b1-4)GlcNAc(b1-3)Gal(b1-4)GlcNAc(b1-3)GalNAc
# How it was run: as §1
# [25] = biological target: Neu5Ac(a2-3)Gal(b1-4)GlcNAc(b1-3)Gal(b1-4)GlcNAc(b1-3)[Neu5Ac(a2-3)Gal(b1-4)GlcNAc(b1-3)Gal(b1-4)GlcNAc(b1-6)]GalNAc
# How it was run: as §1
# [26] = biological target: Neu5Ac(a2-3)Gal(b1-4)GlcNAc(b1-3)Gal(b1-4)GlcNAc(b1-6)[Gal(b1-3)]GalNAc
# How it was run: as §1
# [27] = biological target: Neu5Ac(a2-3)Gal(b1-4)GlcNAc(b1-3)Gal(b1-4)[Fuc(a1-3)]GlcNAc
# How it was run: as §1
# [28] = biological target: Neu5Ac(a2-3)Gal(b1-4)GlcNAc(b1-3)GalNAc
# How it was run: as §1
# [29] = biological target: Neu5Ac(a2-3)Gal(b1-4)GlcNAc(b1-3)[Neu5Ac(a2-3)Gal(b1-4)GlcNAc(b1-6)]GalNAc
# How it was run: as §1
# [30] = biological target: Neu5Ac(a2-3)Gal(b1-4)GlcNAc(b1-6)GalNAc
# How it was run: as §1
# [31] = biological target: Neu5Ac(a2-3)Gal(b1-4)GlcNAc(b1-6)[Gal(b1-3)]GalNAc
# How it was run: as §1
# [32] = biological target: Neu5Ac(a2-3)Gal(b1-4)GlcNAc(b1-6)[Neu5Ac(a2-3)Gal(b1-3)]GalNAc
# How it was run: as §1
# [33] = biological target: Neu5Ac(a2-3)Gal(b1-4)GlcNAc6S
# How it was run: as §1
# [34] = biological target: Neu5Ac(a2-3)Gal(b1-4)[Fuc(a1-3)]GlcNAc
# How it was run: as §1
# [35] = biological target: Neu5Ac(a2-3)Gal(b1-4)[Fuc(a1-3)]GlcNAc(b1-2)Man
# How it was run: as §1
# [36] = biological target: Neu5Ac(a2-3)Gal(b1-4)[Fuc(a1-3)]GlcNAc(b1-3)Gal
# How it was run: as §1
# [37] = biological target: Neu5Ac(a2-3)Gal(b1-4)[Fuc(a1-3)]GlcNAc(b1-3)Gal(b1-4)GlcNAc
# How it was run: as §1
binder,measurement,setting,value
B1,glycan array binding signal (z-score),[1],-0.279
same,glycan array binding signal (z-score),[2],0.351
same,glycan array binding signal (z-score),[3],-0.355
same,glycan array binding signal (z-score),[4],-0.257
same,glycan array binding signal (z-score),[5],-0.265
same,glycan array binding signal (z-score),[6],-0.272
same,glycan array binding signal (z-score),Neu5Ac(a2-3)Gal(b1-4)Glc,-0.294
same,glycan array binding signal (z-score),[7],-0.296
same,glycan array binding signal (z-score),[8],-0.27
same,glycan array binding signal (z-score),[9],-0.337
same,glycan array binding signal (z-score),[10],-0.272
same,glycan array binding signal (z-score),[11],-0.274
same,glycan array binding signal (z-score),[12],-0.271
same,glycan array binding signal (z-score),[13],-0.286
same,glycan array binding signal (z-score),[14],-0.265
same,glycan array binding signal (z-score),[15],-0.271
same,glycan array binding signal (z-score),[16],-0.2
same,glycan array binding signal (z-score),[17],-0.274
same,glycan array binding signal (z-score),[18],-0.289
same,glycan array binding signal (z-score),[19],-0.284
same,glycan array binding signal (z-score),[20],-0.293
same,glycan array binding signal (z-score),[21],-0.239
same,glycan array binding signal (z-score),[22],-0.263
same,glycan array binding signal (z-score),[23],-0.252
same,glycan array binding signal (z-score),[24],0.111
same,glycan array binding signal (z-score),[25],-0.208
same,glycan array binding signal (z-score),[26],-0.259
same,glycan array binding signal (z-score),[27],-0.293
same,glycan array binding signal (z-score),[28],-0.302
same,glycan array binding signal (z-score),[29],0.174
same,glycan array binding signal (z-score),[30],-0.278
same,glycan array binding signal (z-score),[31],-0.301
same,glycan array binding signal (z-score),[32],-0.298
same,glycan array binding signal (z-score),[33],-0.301
same,glycan array binding signal (z-score),[34],-0.293
same,glycan array binding signal (z-score),[35],-0.272
same,glycan array binding signal (z-score),[36],-0.304
same,glycan array binding signal (z-score),[37],-0.275
